Assay results: PubChem BioAssay AID1745853 (National Center for Advancing Translational Sciences (NCATS), 2022)
Some of the results follow. Shown are side measurements of this screen, not its main read-out; they come without a call.

What was measured:
Assay in all cases: Primary Screen for Target Class Profiling of Small Molecule Inhibitors of Methyltransferases
[1] = target: Glycine N-methyltransferase (Homo sapiens) (UniProt Q14749); conditions: purified enzyme, MTase-Glo SAH luminescence; measured here: GNMT inhibition; at 40 µM; stronger effect = lower value
In short: (§1)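 Each enzyme was reacted with SAM and its substrate, with compounds tested once at 40 uM; SAH formed was read by MTase-Glo luminescence.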

[2] = target: Guanidinoacetate N-methyltransferase (Homo sapiens) (UniProt Q14353); conditions: purified enzyme, MTase-Glo SAH luminescence; measured here: GAMT inhibition; at 40 µM; stronger effect = lower value
In short: as §1

[3] = target: Histamine N-methyltransferase (Homo sapiens) (UniProt P50135); conditions: purified enzyme, MTase-Glo SAH luminescence; measured here: HNMT inhibition; at 40 µM; stronger effect = lower value
In short: as §1

[4] = target: Nicotinamide N-methyltransferase (Homo sapiens) (UniProt P40261); conditions: purified enzyme, MTase-Glo SAH luminescence; measured here: NNMT inhibition; at 40 µM; stronger effect = lower value
In short: as §1

[5] = target: Phenylethanolamine N-methyltransferase (Homo sapiens) (UniProt P11086); conditions: purified enzyme, MTase-Glo SAH luminescence; measured here: PNMT inhibition; at 40 µM; stronger effect = lower value
In short: as §1
% is set by controls: 0 for no effect and ±100 for the full control effect.

Row | SMILES | activity change, negative = inhibition [1] [%] | activity change, negative = inhibition [2] [%] | activity change, negative = inhibition [3] [%] | activity change, negative = inhibition [4] [%] | activity change, negative = inhibition [5] [%]
1 | COc1ccccc1CNC(=O)C1(C)Cn2nc(-c3ccccc3)cc2C(=O)N1c1ccc(F)cc1C (stereo not given) | 5.42 | 0 | 6.03 | 5.66 | 0.308
2 | O=S(=O)(c1ccccc1)c1nnn2c1nc(N1CCN(c3ccc(F)cc3)CC1)c1ccccc12 | 2.45 | 4.84 | -1.89 | 3.69 | 3.2
3 | CCc1ccc(CN2C(=O)c3ccc(-c4ccccc4)n3CC2(C)C(=O)NC2CCCCC2)cc1 (stereo not given) | 9.37 | 0 | 8.12 | 5.27 | 3.85
4 | CC1(C(=O)NC2CCCCCC2)Cn2nc(-c3ccco3)cc2C(=O)N1Cc1ccc2c(c1)OCO2 (stereo not given) | -11.7 | 1.31 | -7.78 | -13.9 | -8.22
5 | COc1ccc(-c2cc3n(n2)CC(C)(C(=O)NCc2ccccc2OC)N(Cc2cccc(OC)c2)C3=O)cc1 (stereo not given) | 1.68 | 0.456 | 3.76 | -7.6 | -3.19
6 | Cc1ccc(CNC(=O)c2cc3n(n2)CC(C)(C(=O)NC2CCCC2)N(C)C3=O)cc1 (stereo not given) | 4.99 | 0 | -0.903 | 5.47 | -1.19
7 | O=C(c1ccsc1)N1CCC2(CC1)CN(C1CCC1)CC2CO (stereo not given) | -2.9 | 0.617 | -3.23 | -6.01 | -1.74
8 | CC(C)S(=O)(=O)N1CCC(N(Cc2cccnc2)C2CCOCC2)CC1 | -1.98 | 2.03 | 2.07 | -4.98 | -2.51
9 | Cc1ccc(C)c(C(=O)Cn2nc3n(C)c(=O)c4ccc(C(=O)NC5CCCCC5)cc4n3c2=O)c1 | 0.548 | 3.89 | 4.64 | 1.08 | 0.2
10 | CCOC(=O)c1cccc(N2C(=O)c3cc4ccccc4n3CC2(C)C(=O)NCCC(C)C)c1 (stereo not given) | -1.38 | 6.67 | 0.923 | -3.28 | -2.46
11 | COc1ccc(CNC(=O)CCCc2nnc3n4nc(C)nc4c4ccccc4n23)cc1 | -3.94 | 0.029 | 4.84 | 11.5 | -2.41
12 | Cc1cc2c(cc3n2CC(C)(C(=O)NC2CCCCCC2)N(C2CCCc4ccccc42)C3=O)o1 (stereo not given) | -7.23 | 0 | -4.54 | -1.92 | -5.91
13 | COC(=O)c1cc2n(n1)CC(C)(C(=O)NC1CCCC1)N(c1ccccc1C)C2=O (stereo not given) | 0.135 | 1.99 | 0.126 | 4.29 | 0.351
14 | Cc1ccc(S(=O)(=O)c2nnn3c2nc(N2CCCC(C)C2)c2ccccc23)cc1 (stereo not given) | -4.96 | 0.369 | 7.82 | 4.39 | 1.11
15 | COc1ccc(Cn2c(=O)c3ccccc3n3c(-c4cc(Br)cs4)nnc23)cc1 | -2.37 | 3.22 | -1.85 | 2.16 | -4.42
16 | COCCNc1ncccc1-c1noc([C@@H]2CCCN2C2CCN(C)CC2)n1 | -4.22 | -5.9 | -13.7 | -6.15 | -4.18
17 | CCOC(=O)c1cc2n(n1)CC(C)(C(=O)NC1CCCCC1)N(c1cccc(OC)c1)C2=O (stereo not given) | -2.33 | -0.728 | -2.83 | -3.82 | -4.97
18 | CC(C)Cn1c(=O)c2ccccc2n2c(CCC(=O)NCCc3ccccc3)nnc12 | -3.7 | 2.87 | 1.6 | -12.3 | -2.47
19 | CCCCCNC(=O)c1ccc2c(=O)nc3c(-c4cccc(F)c4)n[nH]n3c2c1 | -5.24 | 2.68 | 0.485 | -4.87 | -5.09
